Source: the RNAGym collection of RNA variant scans (doi:10.7554/elife.90254)
Read counts are not given, so values of variants with three or more changes are uncertain.

B1: LINE1-full (parent)
chain: UACGUAGGUGGUUUUCCCCUGAUAGUGCUAAGGGGGCCUGGAAGUUUGGACUGGGCAGAGCUCAACACAGCGUGGCAAAGUGGCUGUGGCUAGACUGCCUCUCUGGAUUCCUCGUCACUCAGCAGGGCAUCUCUGAGAGAAAUGCC

Variants of: B1
Assay: self-cleavage, relative activity (ratio to wild type); higher = more cleavage; in vitro, sequencing; the parent is a self-cleaving ribozyme

| Variant | self-cleavage |
| --- | --- |
| U12C C19U G41U | 1.02 |
| U12C C19U G89A A136G | 0.09 |
| U12C C19U U91C U109C C113U | 0.45 |
| U12C C19U U112C | 0.62 |
| U12C C61U G126U | 0.05 |
| U12C C71A G114A | 0.09 |
| U12C C76U U119C | 2.26 |
| U12C G21A C37G U102C | 0.58 |
| U12C G25A A124G G126A | 0.88 |
| U12C G25A A129G | 1.53 |
| U12C G25A G58A A77G A136G | 0.11 |
| U12C G25A U87A | 0 |
| U12C G27A C63A | 0.01 |
| U12C G32A A43G | 1.23 |
| U12C G32A A64G U108A U130C A141G | 0.24 |
| U12C G32A A138U | 0.22 |
| U12C G32A C146U | 0.72 |
| U12C G32C U47C U73C U119A A121U U143C | 1.53 |
| U12C G33C A57G | 1.11 |
| U12C G33U U45A A117U G137A | 1 |
| U12C G35A C38U A57U U73C A78G G106U A117G G144U | 0.04 |
| U12C G35A U39C U52A | 1.73 |
| U12C G35A U45C U73C G75A U96C U115C | 0.48 |
| U12C G35A U46C U73C C98A | 0.3 |

| Variant | self-cleavage |
| --- | --- |
| U12C G35U A57G U100C U115G | 0 |
| U12C G36A G48A U96G U109C | 0.1 |
| U12C G36A G54A U130C U134C | 1.04 |
| U12C G41U A50U U52C A59G U96C U108C | 0 |
| U12C G48A C68A U119C | 0.03 |
| U12C G48U U102C | 0.69 |
| U12C G49A A67G A94G | 0.22 |
| U12C G49A A92G | 0.29 |
| U12C G49U U81C | 0.62 |
| U12C G53A A79G | 1.27 |
| U12C G54A A69G U85G | 0.16 |
| U12C G54A U73C A140G | 0.4 |
| U12C G72A U134A | 1.23 |
| U12C G74A U119C | 1.23 |
| U12C G83C A94G A142G | 0.64 |
| U12C G86A A124C | 0.39 |
| U12C G86U U91C U115C | 0.23 |
| U12C G106A U108C | 1.88 |
| U12C G127C A136U | 1.51 |
| U12C U13A U26A G49U U115C U143C | 0.74 |
| U12C U13C A22G G27U A138U | 1.29 |
| U12C U13C A42G A92U G125A | 1.39 |
| U12C U13C C19U G55C U85C A92G U96A | 0 |
| U12C U13C G33A | 1.23 |

| Variant | self-cleavage |
| --- | --- |
| U12C U13C G35U A50U | 1.27 |
| U12C U13C G40A A121G C131U | 1.19 |
| U12C U13C G48A A78G | 0.78 |
| U12C U13C G54U | 1.15 |
| U12C U13C G88A U112C U119A U130A A138U | 0.08 |
| U12C U13C G93A | 0.07 |
| U12C U13C U14C | 1.04 |
| U12C U13C U14C C56U U100C U134C A141G A142G | 2.16 |
| U12C U13C U23A A24G A31G | 1.31 |
| U12C U13C U87A A92G G126A A140G | 0.61 |
| U12C U14A U104C | 1.46 |
| U12C U14C A64C | 0.4 |
| U12C U14C A67G | 0.42 |
| U12C U14C A69G C76U A79G U119G | 0 |
| U12C U14C C120A | 1.28 |
| U12C U14C G48A U115C | 1.02 |
| U12C U14C G72A | 1.17 |
| U12C U14C U45C U73C | 1.84 |
| U12C U14C U47C A136U | 0.73 |
| U12C U14C U87G C131U | 0.04 |
| U12C U15A U47G A69U A107G | 0 |
| U12C U15C A43G G106A A117G | 0.88 |
| U12C U15C A136G | 1.31 |
| U12C U15C G21U U112C | 0.61 |

| Variant | self-cleavage |
| --- | --- |
| U12C U15C U20C A59U U85C U112C A121U | 0 |
| U12C U15C U52C | 1.62 |
| U12C U20A A64C | 0.57 |
| U12C U20C A30U U47C A64U U143C | 0.67 |
| U12C U20C A43U A50G A59C | 0 |
| U12C U20C A50U U85A | 0.2 |
| U12C U20C G54A A117U U143C | 1.22 |
| U12C U20C U26C A94G A141C A142U | 0 |
| U12C U20C U46C | 0.95 |
| U12C U20C U47C U119A | 1.04 |
| U12C U20C U62A C95A U130C | 0.1 |
| U12C U20C U109G A121U | 0.34 |
| U12C U23A A50U U115A | 0.36 |
| U12C U23A U73C A140G | 0.45 |
| U12C U23C A64G U73C | 1.67 |
| U12C U23C G32A A64G | 0.6 |
| U12C U23C U87A | 0.67 |
| U12C U23C U102C | 0 |
| U12C U26A C71A | 0.07 |
| U12C U26A U29A U46A U104C A138U | 0.91 |
| U12C U26A U115A A124U | 1.15 |
| U12C U26C A43U U45C | 2.16 |
| U12C U26C A69U | 1.84 |
| U12C U26C A121G A141G | 2.3 |

| Variant | self-cleavage |
| --- | --- |
| U12C U26C G54C C56A U115A | 0.31 |
| U12C U26C U46C | 0.88 |
| U12C U29A A59G C98U | 0.2 |
| U12C U29A A142U | 1.21 |
| U12C U29C A77U U132A | 1.23 |
| U12C U29C A129U | 1.64 |
| U12C U29C C120U A142G | 0.68 |
| U12C U29C C131G | 1.79 |
| U12C U29C G40A U47A U119C | 1.52 |
| U12C U29C G89A | 0.17 |
| U12C U29G C51U A79G U85C A141G | 0.38 |
| U12C U39A U102C | 1.49 |
| U12C U39A U143C | 1.57 |
| U12C U39C A77U | 0.66 |
| U12C U39C A94G | 0.38 |
| U12C U39C G88A | 0.08 |
| U12C U39C U91A U108C | 0.77 |
| U12C U39C U102A | 1.18 |
| U12C U39C U109C A136G | 0.84 |
| U12C U39C U119C | 2.57 |
| U12C U45A U119C A124G U132C | 0.46 |
| U12C U45C A138G | 1.19 |
| U12C U45C C103A U119C A121G | 1.2 |
| U12C U45C G54C A65U | 0.07 |

| Variant | self-cleavage |
| --- | --- |
| U12C U45C G126U | 0.6 |
| U12C U45G U102C U134C | 0.79 |
| U12C U46A A78C A94G U119C | 0.86 |
| U12C U46A A79U C95U A140U | 0.22 |
| U12C U46A A136G | 1.56 |
| U12C U46A U85C | 0.21 |
| U12C U46A U87C | 0.16 |
| U12C U46C A67G | 1.25 |
| U12C U46C A138G | 2.42 |
| U12C U46C C66U A79G | 0.06 |
| U12C U46C G53A U130C A141G | 0.77 |
| U12C U46C G105A A129G A140U | 1.75 |
| U12C U46C U62A | 0 |
| U12C U47A A67G A129U A142G | 1.06 |
| U12C U47A A67G U96A | 0.19 |
| U12C U47A C84U U115A C123G A124G | 0.07 |
| U12C U47A U52C G83A | 1.09 |
| U12C U47A U62C G114U | 0 |
| U12C U47A U96G | 0.26 |
| U12C U47A U100C A136G | 1.86 |
| U12C U47C G54U A65G | 0.14 |
| U12C U47C U81C A136U | 1.39 |
| U12C U47C U130G | 1.84 |
| U12C U47G A57U U134C | 0.09 |

| Variant | self-cleavage |
| --- | --- |
| U12C U52A A57G U96C U104C | 1.97 |
| U12C U52A A64G U85C | 0.87 |
| U12C U52A A92U C120U G126U | 1.06 |
| U12C U52A U102A A117U A124G | 2.04 |
| U12C U52A U115C U134C | 1.43 |
| U12C U62A A67U A79G | 0.04 |
| U12C U62A C84G | 0.12 |
| U12C U62C A69U | 0.08 |
| U12C U62C A78U | 0.02 |
| U12C U62C A117U U119C | 0.14 |
| U12C U62C A138G | 0 |
| U12C U62C A140U | 0.07 |
| U12C U62C U73A | 0.02 |
| U12C U62C U104C | 0.23 |
| U12C U62C U109C | 0 |
| U12C U62G U73G C90U | 0.09 |
| U12C U73A A79U U85A | 0.11 |
| U12C U73C U96C | 0.66 |
| U12C U81A U109C A142C | 0.38 |
| U12C U81G U112A | 1 |
| U12C U87A A92G | 0.09 |
| U12C U87A U132C U143C | 0.29 |
| U12C U87G U143C | 0.15 |
